Results published in PubChem BioAssay AID504339 (National Center for Advancing Translational Sciences (NCATS), 2011).
The campaign covered roughly 390,000 compounds. About 17,000 (4.4%) were called active. The shares of active, inactive and inconclusive entries below differ from those in the screen. Calls come from the whole dose curve; as a rule, active = well fitted inhibition curve with a large enough effect; inconclusive = small, poorly fitted or top-dose-only effect; inactive = no such curve, though single readings can be large or run the other way. Potencies beside an inconclusive call are fits to weak or partial responses and may not hold up.

Biological target: Lysine-specific demethylase 4A (Homo sapiens) (UniProt O75164)
Test: qHTS Assay for Inhibitors of JMJD2A-Tudor Domain; note: nearly all actives have a fitted effect of over 50% in size
Conditions: AlphaScreen JMJD2A-Tudor / H3K4me3 peptide binding; series mostly up to 114 µM
Potency is the fitted concentration of half-maximal effect; tags give direction and shape of the fitted curve.

Sequence of UniProt O75164 (O75164 whole entry, looked up, the tested form may be a part): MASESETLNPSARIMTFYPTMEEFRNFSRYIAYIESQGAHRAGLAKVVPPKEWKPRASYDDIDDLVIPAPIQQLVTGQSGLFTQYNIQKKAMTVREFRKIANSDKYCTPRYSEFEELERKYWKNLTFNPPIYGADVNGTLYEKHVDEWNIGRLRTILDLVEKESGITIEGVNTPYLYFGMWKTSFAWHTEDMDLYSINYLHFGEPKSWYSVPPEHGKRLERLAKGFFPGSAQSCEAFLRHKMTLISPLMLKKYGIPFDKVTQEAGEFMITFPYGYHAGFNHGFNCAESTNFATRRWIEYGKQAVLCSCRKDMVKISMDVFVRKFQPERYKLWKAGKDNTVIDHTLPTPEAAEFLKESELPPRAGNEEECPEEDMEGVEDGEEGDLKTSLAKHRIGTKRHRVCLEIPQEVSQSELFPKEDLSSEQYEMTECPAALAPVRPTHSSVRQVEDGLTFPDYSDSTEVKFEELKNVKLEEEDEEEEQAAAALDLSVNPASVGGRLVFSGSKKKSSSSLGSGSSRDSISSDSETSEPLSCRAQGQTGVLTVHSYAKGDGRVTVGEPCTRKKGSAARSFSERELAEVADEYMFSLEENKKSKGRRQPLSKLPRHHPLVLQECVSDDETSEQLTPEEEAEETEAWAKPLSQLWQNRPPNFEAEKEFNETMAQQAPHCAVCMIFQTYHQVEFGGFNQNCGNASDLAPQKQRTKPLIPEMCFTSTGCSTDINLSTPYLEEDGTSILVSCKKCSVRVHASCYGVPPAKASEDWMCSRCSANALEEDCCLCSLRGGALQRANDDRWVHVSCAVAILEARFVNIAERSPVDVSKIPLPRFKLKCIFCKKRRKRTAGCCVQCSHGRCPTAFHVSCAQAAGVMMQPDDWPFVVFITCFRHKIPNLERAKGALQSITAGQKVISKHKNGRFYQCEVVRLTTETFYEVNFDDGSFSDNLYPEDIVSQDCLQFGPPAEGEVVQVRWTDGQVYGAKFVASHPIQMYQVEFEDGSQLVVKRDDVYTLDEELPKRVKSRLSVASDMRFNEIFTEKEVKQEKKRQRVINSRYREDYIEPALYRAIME

Q: How did the Potency turn out when Cc1cccc(C(=O)Nc2ccc(N3CCN(c4ccc(F)cc4)CC3)c(C(=O)O)c2)c1 was run?
A: Its Potency is inconclusive: 89.1 µM [inhibitor, single point].

Q: For CCN(CC)C(=O)c1nn(-c2ccc(OC)cc2)c(=O)c2c(N)scc12, which Potency is on record?
A: The Potency was active: 56.2 µM.

Q: With COc1cc([N+](=O)[O-])cc(/C=N/NC(=O)CSc2ccccn2)c1O as the molecule, how does the Potency read?
A: Its Potency is active: 79.4 µM.

Q: With Cc1cc2ncn(-c3ncccc3[N+](=O)[O-])c2cc1C as the molecule, how does the Potency read?
A: The Potency was inconclusive: 56.2 µM [inhibitor, partial curve, poor fit].

Q: With CCCCC1=CC2=C(c3ccco3)C(=O)C(C)(OC(=O)c3ccc(OC)cc3)C(=O)C2=CN1CCN1CCOCC1 (stereo not drawn) as the molecule, how does the Potency read?
A: Its Potency is inconclusive: 50.1 µM [inhibitor, partial curve].

Q: With O=C(O)c1ccccc1C(=O)Nc1ccc(Nc2ccc([N+](=O)[O-])cc2[N+](=O)[O-])cc1 as the molecule, how does the Potency read?
A: The Potency was inconclusive: 63.1 µM [inhibitor, partial curve, poor fit].

Q: With CCOc1ccccc1CN1CCN(Cc2cc3ccccc3[nH]2)CC1CCO (stereo not drawn) as the molecule, how does the Potency read?
A: The Potency was inconclusive: 35.5 µM [inhibitor, full curve, poor fit].

Q: CC(=O)Nc1sc2c(c1CN1CCN(c3ccccn3)CC1)CCCC2 was tested. Which Potency did it give?
A: The Potency was inconclusive: 56.2 µM [inhibitor, partial curve].

Q: With Cc1cc(C)c2sc(N(CCN(C)C)C(=O)c3cc(Cl)sc3Cl)nc2c1 as the molecule, how does the Potency read?
A: Its Potency is inconclusive: 11.2 µM [inhibitor, full curve, poor fit].

Q: For COc1ccc(/C(C)=N/NC(=S)NCCc2ccccc2)cc1, which Potency is on record?
A: The Potency was inconclusive: 79.4 µM [inhibitor, partial curve].

Q: Which Potency does the source give for Cc1ccc(CNC(=O)Nc2ccc(F)cc2)n1C here?
A: Its Potency is inconclusive: 79.4 µM [inhibitor, single point].

Q: With CCc1ccc(CNC(=O)CN2C(=O)CCn3nc(-c4cn(C)c5ccccc45)cc32)cc1 as the molecule, how does the Potency read?
A: The Potency was inconclusive: 39.8 µM [inhibitor, partial curve].

Q: For c1ccc(-c2nnc3ccc(N4CCC5(CC4)OCCO5)nn23)cc1, which Potency is on record?
A: The Potency was “inactive”.

Q: For CC(CC(=O)Nc1ccncc1)c1ccccc1 (stereo not drawn), which Potency is on record?
A: Its Potency is “inactive”.

Q: For Cc1ccc(CN2C(=O)c3ccccc3Sc3ccc(C(=O)NCCCN4CCOCC4)cc32)cc1, which Potency is on record?
A: The Potency was inconclusive: 11.2 µM [inhibitor, full curve, poor fit].

Q: For Cc1ccc(C(=O)/C=C/c2ccc(-c3ccccc3[N+](=O)[O-])o2)cc1, which Potency is on record?
A: Its Potency is inconclusive: 25.1 µM [inhibitor, full curve].

Q: For COc1ccccc1CN1CCC(CNC(=O)c2cnn(-c3ccc(C)c(C)c3)c2C2CCN(C(=O)OC(C)(C)C)CC2)CC1, which Potency is on record?
A: Its Potency is inconclusive: 56.2 µM [inhibitor, partial curve].

Q: With Cc1ccccc1C(=O)Nc1ccc(N2CCCC2)cc1 as the molecule, how does the Potency read?
A: Its Potency is active: 28.2 µM.

Q: For CCOc1cc(NS(=O)(=O)c2ccccc2)c(OCC)cc1NC(=O)c1ccco1, which Potency is on record?
A: The Potency was inconclusive: 31.6 µM [inhibitor, partial curve].

Q: COc1ccc(N2CCN(C(=O)COC(=O)c3cccc(S(=O)(=O)Nc4cccc(C)c4)c3)CC2)cc1 was tested. Which Potency did it give?
A: Its Potency is inconclusive: 28.2 µM [inhibitor, full curve, poor fit].

Q: For COc1ccc(Cl)cc1C(=O)n1cnc2ccccc21, which Potency is on record?
A: The Potency was “inactive”.

Q: For COc1ccccc1CCC(=O)OCC(=O)N1c2ccccc2NC(=O)C1(C)C, which Potency is on record?
A: The Potency was inconclusive: 79.4 µM [inhibitor, partial curve, poor fit].

Q: COc1cccc(OCCOc2ccc(/C=C3\C(=N)N4N=C(S(C)(=O)=O)SC4=NC3=O)cc2OC)c1 was tested. Which Potency did it give?
A: Its Potency is active: 56.2 µM.

Q: Nc1nc(N)c2ncc(C(=O)CCc3ccccc3)nc2n1 was tested. Which Potency did it give?
A: The Potency was active: 14.1 µM.

Q: Which Potency does the source give for Cc1ccc(-n2cnn(-c3ccc([N+](=O)[O-])cc3[N+](=O)[O-])c2=O)cc1 here?
A: The Potency was inconclusive: 44.7 µM [inhibitor, single point].

Q: Which Potency does the source give for COc1cc(-c2nc(S(=O)(=O)c3ccc(C)cc3)c(N(C)C)o2)cc(OC)c1OC here?
A: Its Potency is inconclusive: 79.4 µM [inhibitor, single point].

Q: Which Potency does the source give for Cc1cccc2nc(CSc3nc4ccc([N+](=O)[O-])cc4[nH]3)cn12 here?
A: Its Potency is inconclusive: 50.1 µM [inhibitor, partial curve].

Q: With COc1ccc(NC(=O)c2ccc(COc3ccccc3)o2)cc1 as the molecule, how does the Potency read?
A: The Potency was inconclusive: 39.8 µM [inhibitor, single point].

Q: How did the Potency turn out when CCCSc1nc2c(cnn2-c2ccc(C)cc2)c(=O)[nH]1 was run?
A: Its Potency is inconclusive: 100 µM [inhibitor, partial curve].

Q: CCC/C=C1/CCCOC(C(=O)NCc2ccccc2)(C(F)(F)F)C1 (stereo not drawn) was tested. Which Potency did it give?
A: Its Potency is “inactive”.

Q: For CCCCCc1ccc(C(=O)CCCC)c(=S)[nH]1, which Potency is on record?
A: Its Potency is inconclusive: 89.1 µM [inhibitor, single point].

Q: With CCCC1(C(=O)OCC)NC(c2ccc(N(C)C)cc2)C2C(=O)N(c3ccccc3)C(=O)C21 (stereo not drawn) as the molecule, how does the Potency read?
A: Its Potency is inconclusive: 50.1 µM [inhibitor, partial curve].

Q: Which Potency does the source give for CCC1CCCCN1C(=O)CSc1nnc(-c2ccc(Cl)s2)o1 (stereo not drawn) here?
A: The Potency was “inactive”.

Q: Which Potency does the source give for Cn1c(-c2ccccc2)cnc1SCc1nc2ccccc2c(=O)[nH]1 here?
A: Its Potency is inconclusive: 63.1 µM [inhibitor, partial curve].

Q: Which Potency does the source give for Cc1nn(Cc2ccccc2Cl)c(C)c1C(=O)N1CCN(c2ccccc2)CC1 here?
A: Its Potency is inconclusive: 89.1 µM [inhibitor, single point].

Q: C=CSc1sc(Cl)c(N(C)C)c1[N+](=O)[O-] was tested. Which Potency did it give?
A: The Potency was inconclusive: 15.8 µM [inhibitor, full curve, poor fit].

Q: Which Potency does the source give for O=C(CSc1nc2ccccc2c(=O)n1CCC(=O)N1CCN(c2ccccc2)CC1)NCC1CCCO1 (stereo not drawn) here?
A: Its Potency is active: 56.2 µM.

Q: Which Potency does the source give for Cc1c(C(=O)N(Cc2ccc(N(C)C)cc2)CC2CCCO2)oc2ccc(Br)cc12 (stereo not drawn) here?
A: Its Potency is active: 12.6 µM.

Q: For C#CCSc1nc2ccccc2c(=O)n1CC=C, which Potency is on record?
A: The Potency was “inactive”.

Q: With Cc1cccnc1 as the molecule, how does the Potency read?
A: The Potency was “inactive”.

Q: With Nc1n[nH]c(N)c1N=Nc1cccc(F)c1 as the molecule, how does the Potency read?
A: The Potency was inconclusive: 89.1 µM [inhibitor, partial curve].

Q: Which Potency does the source give for COc1ccc(OC)c(NC(=O)C2CC(=O)N(Cc3ccco3)C2)c1 (stereo not drawn) here?
A: The Potency was “inactive”.

Q: With CC(=O)c1cccc(NC(=O)CSc2ccc(-c3sc(C)nc3C)nn2)c1 as the molecule, how does the Potency read?
A: The Potency was “inactive”.
